# From PubChem BioAssay AID1030 (National Center for Advancing Translational Sciences (NCATS), 2008)
# Values joined by “and” are separate entries in the source; they are usually repeats but may differ in a detail not shown here. Equal entries are not always repeated. Out of some 220,000 compounds screened, about 16,000 (7.3%) were called active. This list was built around the results that the source calls inconclusive (neither active nor inactive); the mix of calls is not that of the screen. Calls come from the whole dose curve; as a rule, active = well fitted inhibition curve with a large enough effect (not every such curve was filed as active); inconclusive = small, poorly fitted or top-dose-only effect, or another doubt; inactive = no such curve, though single readings can be large or run the other way. Potencies of inconclusive entries are left out as doubtful fits.
# Biological target: Aldehyde dehydrogenase 1A1 (Homo sapiens) (UniProt P00352)
# Sequence of UniProt P00352 (P00352 whole entry, looked up): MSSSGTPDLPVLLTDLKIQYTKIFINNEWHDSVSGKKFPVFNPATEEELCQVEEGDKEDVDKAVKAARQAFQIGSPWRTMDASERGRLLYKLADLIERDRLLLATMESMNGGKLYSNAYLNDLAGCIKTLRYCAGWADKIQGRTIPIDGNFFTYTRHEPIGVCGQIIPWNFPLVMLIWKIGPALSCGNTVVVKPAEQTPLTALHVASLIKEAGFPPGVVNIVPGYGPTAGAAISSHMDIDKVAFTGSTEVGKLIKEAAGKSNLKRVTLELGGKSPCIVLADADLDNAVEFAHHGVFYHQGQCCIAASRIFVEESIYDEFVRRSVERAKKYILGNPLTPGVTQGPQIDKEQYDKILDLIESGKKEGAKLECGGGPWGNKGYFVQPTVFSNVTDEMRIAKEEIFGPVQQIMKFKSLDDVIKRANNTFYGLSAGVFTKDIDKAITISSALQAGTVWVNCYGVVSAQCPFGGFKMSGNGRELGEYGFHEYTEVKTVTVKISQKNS
# Assay: qHTS Assay for Inhibitors of Aldehyde Dehydrogenase 1 (ALDH1A1);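 for activity, negative = inhibition: plate controls were no enzyme wells and a reference inhibitor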
# Conditions: Purified ALDH1A1, NADH fluorescence, propionaldehyde substrate; series mostly up to 75.3 µM
# Potency is the fitted concentration of half-maximal effect; tags give direction and shape of the fitted curve.
Structure (SMILES),Potency,"activity, negative = inhibition"
CC1(C)CC2CC(C)(CN2c2ncnc3ccccc23)C1 (stereo not drawn),"inconclusive [inhibitor, partial curve]",
CCCCSc1nc(C)nc2c1c(=O)n(C)c(=O)n2C,"inconclusive [inhibitor, single point]",
COc1cc(Cl)cc(/C=C/c2ccc3ccccc3n2)c1OC(C)=O,"inconclusive [inhibitor, single point]",
CC(C)(C)n1ncc2c(=O)n(Cc3ccc(Cl)cc3)cnc21,inactive,
CCCc1nc2sc3c(c2c(=O)n1NC(=O)c1ccco1)CC(C)(C)OC3,"inconclusive [inhibitor, single point]",
CC(=O)NCc1c(I)c(NC(C)=O)c(I)c(C(=O)O)c1I,inactive,
COc1ccc(-n2c(N)c(C(=O)NCc3ccco3)c3nc4ccccc4nc32)cc1OC,"inconclusive [inhibitor, partial curve]",
CNC(=O)c1ccccc1NC(=O)c1cccc(S(=O)(=O)N2CCC(C)CC2)c1,"inconclusive [inhibitor, single point]",
COc1ccc(CSc2ncn[nH]2)cc1[N+](=O)[O-],"inconclusive [inhibitor, partial curve]",
CC1(C)CC(=O)C2=C(C1)N(c1ccccc1C#N)C(N)=C(C#N)C2c1cccs1 (stereo not drawn),inactive,
COC(=O)C1=C(C)NC(=S)NC1c1ccc(-c2cccc(Cl)c2)o1 (stereo not drawn),active: 2 µM,
COc1ccc(S(=O)(=O)NCC2CCC(C(=O)NCCC(C)C)CC2)cc1 (stereo not drawn),"inconclusive [inhibitor, single point]",
CC(NC(=O)CN1C(=O)NC(Cc2ccccc2)(Cc2ccccc2)C1=O)C12CC3CC(CC(C3)C1)C2 (stereo not drawn),"inconclusive [inhibitor, single point]",
COc1ccc(C2CC(c3c(-c4ccccc4)c4cc(Cl)ccc4[nH]c3=O)=NN2S(C)(=O)=O)cc1OC (stereo not drawn),"inconclusive [inhibitor, full curve]",
Cc1n[nH]c(C)c1N1C(=O)c2cccc3cc(Br)cc(c23)C1=O,inactive,
C=CCn1c(SC/C=C/c2ccccc2)nnc1-c1sc(N)nc1C,"inconclusive [inhibitor, single point]",
O=C(CCCSc1ccccc1)Nc1nc(-c2ccco2)c(-c2ccco2)s1,"inconclusive [inhibitor, partial curve]",
CCN(CC)CCCNC(=O)C1CCN(C(=O)c2cc3sccc3n2Cc2ccc(F)cc2)CC1,"inconclusive [inhibitor, single point]",
O=C(CSc1nnc(CCc2ccccc2)n1-c1ccc(Cl)cc1)c1ccccc1,"inconclusive [inhibitor, single point]",
COc1cc(NC(=O)COC(=O)CSc2ccc3ccccc3c2)c(C)cc1[N+](=O)[O-],"inconclusive [inhibitor, single point]",
CC(=O)C(Sc1nn(C)c(=S)s1)C(=O)Nc1ccccc1 (stereo not drawn),active: 4.47 µM,
COc1ccc(Cl)cc1C(=O)NNC(=S)NC(=O)c1cc(-c2ccccc2)nc2ccccc12,active: 31.6 µM,
CCOc1ccc(CC(=O)Nc2sc(Cc3ccccc3)c(C)c2C(N)=O)cc1OCC,"inconclusive [inhibitor, partial curve]",

Structure (SMILES),Potency,"activity, negative = inhibition"
O=C(Cn1ncc2c3ccccc3n(Cc3ccccc3)c2c1=O)N1CCN(c2ncccn2)CC1,"inconclusive [inhibitor, single point]",
Cc1oc(/N=C/c2cccc3ccccc23)c(C#N)c1C,"inconclusive [inhibitor, single point]",
CSc1nc2nc3c(cc2c(=O)n1-c1cccc(C)c1)COC(C)(C)C3,active: 3.55 µM,
Cc1oc(-c2ccc(Cl)cc2)[n+]([O-])c1C,"inconclusive [inhibitor, single point]",
CCN(CC)C(=O)C(=O)N/N=C/c1ccc(Cl)cc1Cl,inactive,
Cc1ccc2oc(=O)c(/C=C(\O)c3ccccc3)nc2c1,"inconclusive [inhibitor, single point]",
CCOC(=O)c1nnc(-c2ccccc2)nc1Sc1ccccc1Cl,inactive,
COc1cc(-c2cc(C(=O)NN3CCN(C)CC3)c3ccccc3n2)cc(OC)c1OC,"inconclusive [inhibitor, single point]",
COc1ccc(OC)c(/C=C2/Sc3ccccc3C2=O)c1,"inconclusive [inhibitor, full curve]",
COc1ccc(-c2nnc(-c3ccc(OCC(C)C)cc3)o2)cc1,"inconclusive [inhibitor, single point]",
COC(=O)Nc1cccn(Cc2c(Cl)cccc2Cl)c1=O,"inconclusive [inhibitor, single point]",
COc1ccc2[nH]cc(C(=O)CN(C)CCc3ccc(OC)c(OC)c3)c2c1,"inconclusive [inhibitor, single point]",
COc1ccc(CN2CCN(C(=O)CC(C)C)CC2)c2ccccc12,"inconclusive [inhibitor, single point]",
O=C(Nc1cccc(C(F)(F)F)c1)c1cc(-c2ccc(F)cc2)on1,inactive,
O=C(Nc1ccncc1)C1CCN(S(=O)(=O)c2cccs2)CC1,inactive,
Nc1nc2n(n1)C(c1cccc(Br)c1)CC(c1ccccc1)N2 (stereo not drawn),"inconclusive [inhibitor, single point]",
COc1ccc(Cl)cc1NC(=O)CNc1ccc(F)cc1C,"inconclusive [inhibitor, single point]",
O=C(N/N=C/c1ccc(F)cc1)c1cc(-c2ccco2)nc2ccccc12,"inconclusive [inhibitor, single point]",
Cc1cccc(N2CCN(C(=O)CCNS(=O)(=O)c3ccc4c(c3)CCC(=O)N4)CC2)c1C,"inconclusive [inhibitor, single point]",
Cc1cc(C)n(-c2ccc3nncn3n2)n1,inactive,
Cc1ccccc1CCN(C(=O)Cn1nnc2ccccc21)C(C(=O)NCC1CCCO1)c1nc2ccccc2n1C (stereo not drawn),inactive,
CC(C)Cn1c(=O)c2ccccc2n2c(SCC(=O)N3c4ccccc4CC3C)nnc12 (stereo not drawn),"inconclusive [inhibitor, full curve]",
O=C(Nc1ccccc1)[C@@]12C[C@@H]1/C(=N/O)c1ccccc1O2,inactive,

Structure (SMILES),Potency,"activity, negative = inhibition"
NC(=O)CCCCn1ccc(NC(N)=NCC(F)(F)F)n1,inactive,
COCCOC(=O)C1=C(C)NC2=C(C(=O)CC(C)(C)C2)C1c1cccnc1 (stereo not drawn),"inconclusive [inhibitor, partial curve]",
CC(C)(C)c1cc(=O)n(-c2ccccc2)[nH]1,"inconclusive [inhibitor, single point]",
O=C1CN(C(=O)CNC(=O)c2ccccc2Cl)c2ccccc2N1,"inconclusive [inhibitor, single point]",
CN(C)CCCn1c(N)c(C#N)c2nc(C#N)c(C#N)nc21,"inconclusive [inhibitor, partial curve]",
CC1N(C)c2cccc3cccc(c23)N1C,"inconclusive [inhibitor, partial curve]",
COC(=O)C1=C(C)N(Cc2ccccc2)[C@]23O[C@](C(=O)OC)(C(=O)N2C1c1ccccc1)C1CCCC(=O)C13 (stereo partly drawn),,inactive: 10.7% [at 13.5 µM] and inactive: 14.3% [at 13.5 µM]
CSc1nc(-c2ccccc2)nc(N2CCOCC2)c1C(C)=O,inactive,
CCCc1cc(=O)[nH]c(SCC(=O)c2cc(C)n(-c3c(C)n(C)n(-c4ccccc4)c3=O)c2C)n1,inactive,
CC1=CC=CN2C1=NC(=O)CC2(C)C(=O)N(CC(=O)NC1CCCC1)c1ccccc1C (stereo not drawn),"inconclusive [inhibitor, partial curve]",
CCSc1nnc(NC(=O)c2nn(C(C)C)c(=O)c3ccccc23)s1,active: 25.1 µM,
Cc1cc(-c2nc(C)c(C(=O)NNS(=O)(=O)c3ccc(Cl)cc3Cl)s2)no1,"inconclusive [inhibitor, single point]",
CCSc1nc2c(c(-c3ccc(C)o3)c1C#N)CCCC2,"inconclusive [inhibitor, single point]",
O=C(c1cccnc1)N1CCN(Cc2cccc(F)c2)CC1,"inconclusive [inhibitor, single point]",
CCOc1ccc(N2C(=O)C3C4C=CC(CC4)C3C2=O)c([N+](=O)[O-])c1 (stereo not drawn),active: 28.2 µM,
Cc1cnc(CNc2ccnc(-c3ccc(N(C)C)cc3)n2)cn1,"inconclusive [inhibitor, partial curve]",
COc1ccc(Cn2c(CCC(=O)Nc3ccc(CC#N)cc3)nc3cccnc32)cc1,inactive,
CCOC(=O)c1c(C)[nH]c(=S)c(C#N)c1-c1ccc(OC)cc1,"inconclusive [inhibitor, partial curve]",
CC(O)Cn1cnc2c1c(=O)n(C)c(=O)n2C (stereo not drawn),inactive,
Cn1c(=O)n(C)c2cc(/C=C3/NC(=O)N(Cc4ccccc4)C3=O)ccc21,"inconclusive [inhibitor, full curve]",
COc1cc(OC)cc(C(=O)N[C@H](C(=O)OCC(=O)Nc2ccc(F)c(F)c2F)C(C)C)c1,"inconclusive [inhibitor, partial curve]",
O=C(CN1CCN(Cc2ccccc2)CC1)N/N=C/C=C/c1ccccc1[N+](=O)[O-],"inconclusive [inhibitor, single point]",
